Laboratory results from publication PMC12136788.
The other results are listed elsewhere or left out.

T1: UNK ZnF1-3 (human, UniProt Q9C0B0 31-174)
T1 sequence: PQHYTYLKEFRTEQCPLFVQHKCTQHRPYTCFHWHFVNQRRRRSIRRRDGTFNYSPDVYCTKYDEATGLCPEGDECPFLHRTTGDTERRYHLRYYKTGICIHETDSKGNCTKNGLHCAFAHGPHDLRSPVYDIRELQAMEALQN

B1: 60194225_60194345_1452_CDS_ENSG00000139970_ENST00000267484|human|control|control (ssRNA)
RNA: GGGAGUUCUACAGUCCGACGAUCCGGUCCGGACCUGGCCUUGACCUCGGGCCUGUCGGCCAGCUGGCCCACCGGCCGUGGGUUCUCGGCGGUUUCAUACGAUAAUCCCUUUGCUUCUUUGAUGGCGGUGAUCAGCUCAUCCUCCAACAGAGGAUUGAGCAUCA
B2: chr10:33190432:33190433:-_ENSG00000150093_ENST00000302278|hu_mus|hu_hu_hu_mus_True|28_108 (ssRNA)
RNA: GGGAGUUCUACAGUCCGACGAUCUACAUUUUCAAAACCUGCAUGUGAAUAAAACCCUGGCCACAGAGCCCCAAAACUACCCUACUGUGACUAAGAUGCUGCUGCUGUUGCAUUCAGGUUGCAAAAUCCGCCUGAGUAGGAUUCCAACAGAGGAUUGAGCAUCA
B3: 24094108_24095024_1607_3pUTR_ENSMUSG00000038181_ENSMUST00000088295|mouse|control|control (ssRNA)
RNA: GGGAGUUCUACAGUCCGACGAUCCUACUGUACGGUUAACCGCGACGGCCAGGGUGGACAGUGUGGCUCGAGAAGUCAGGACAGCCACCAGCAGGCGCUCACGAGAGCCCAGCUCUGUCUGUAUAUACCGAGUCCUGAGCACCUCAACAGAGGAUUGAGCAUCA
B4: chr7:32526834:32526835:-_ENSG00000106355_ENST00000409292|hu_hu|FALSE|FALSE (ssRNA)
RNA: GGGAGUUCUACAGUCCGACGAUCUAGAAAGUGGGAAAAAAAAUUCCAUUUUCUUGUCAUUAUAAGCCAAAACAAAAUCUAGUGUAAGUCAAGGAAACUCAUUCACACUUCAGGUCCUUCUCCUCCAGGAACCAGCAUUGUUAUCAACAGAGGAUUGAGCAUCA
B5: 46963473_46964311_1556_3pUTR_ENSMUSG00000025041_ENSMUST00000168536|mouse|control|control (ssRNA)
RNA: GGGAGUUCUACAGUCCGACGAUCGUGGCGAGAGGGGACUCCAUCUCAUUGAUAUCCACAUGCGUGUGUUCCACCGUUGACUCGUGCGGCAUCAGGACAUGGGCAGCUCUGAAGAGGUAGCUGAAUGGGUAGUACAGCAGGUUGCAACAGAGGAUUGAGCAUCA
B6: chr3:3214544:3214545:-_ENSG00000113851_ENST00000231948|hu_hu|FALSE|FALSE (ssRNA)
RNA: GGGAGUUCUACAGUCCGACGAUCUUUGAACCUUUGUCUUCCAAUUGCUUUCACUUUCACUAUCUCAAUUCCAAAAUCCUGUUCUUCUCGAUAGGCAUAUAUCUCUGCUGUUGUUCCAAACUGUGCUUCCCUUUCCUGUACAUUCAACAGAGGAUUGAGCAUCA
B7: 151032446_151032566_2273_5pUTR_ENSG00000213190_ENST00000368921|human|control|control (ssRNA)
RNA: GGGAGUUCUACAGUCCGACGAUCUUAAGGACUUUAGGUUACAAAGUAUUUUUAAGAAUCAGAGUAUUUUUCCACCCCUUCUCCCAAUCCCUGCUCCUCCAGACUCGCCUCUCUACCCUCACAAUGGGUAAAUAAACCUAGUCCCAACAGAGGAUUGAGCAUCA
B8: chr17:62499352:62499353:-_ENSG00000108654_ENST00000581693|hu_mus|FALSE|FALSE (ssRNA)
RNA: GGGAGUUCUACAGUCCGACGAUCUCUUAUUUGAUCCACAAUUUUCCUUAUCUGGGGUUCAAAUCCCAUAUCAAGCAUCCUAUCAGCUUCAUCAAGGACAAGGUAAGUUGUUCUUCUCAGAUUGGUUUUCCCACACUCUAAAAACAACAGAGGAUUGAGCAUCA
B9: 69561058_69561178_1617_CDS_ENSG00000138604_ENST00000261858|human|control|control (ssRNA)
RNA: GGGAGUUCUACAGUCCGACGAUCCUGCUCAGAUAGAAACUUAUAAGGGGCUGUUGCCCUUAAAGCUGAAUUGAGGAAUAUAUGGUCUUUUGUUAACAGAUAGGCCCUGACUAAUGUAGAAAUGGCUUGCCCUUGGGCCAUGGCCAACAGAGGAUUGAGCAUCA
B10: 24893896_24894016_431_3pUTR_ENSMUSG00000019132_ENSMUST00000019276|mouse|control|control (ssRNA)
RNA: GGGAGUUCUACAGUCCGACGAUCGACACUGGAUCACUCGGGUUCUCACUCAUUUCAAUGUGGAAACAAUUCCCGCCCGGGUAGAGGAGGCGGGAAGAGAGUUAAGUAGGAAGGAUCAGUUGGGAGGAGGGGAAAAGAAGAGAACAACAGAGGAUUGAGCAUCA
B11: chr17:55757426:55757427:+_ENSG00000153944_ENST00000284073|hu_mus|FALSE|FALSE (ssRNA)
RNA: GGGAGUUCUACAGUCCGACGAUCAUAGAGUCUAUGCCCACCUCCCGCUCCGCGUAUCACAACUUCGAUUCAGUGUGUGCUAAAGUCCCAGAUGAAAAGUCUUACAGUCUCAGAACUGGUACCAAAAAUGGAGAGUAACAUCACCAACAGAGGAUUGAGCAUCA
B12: chr5:37310712:37310713:-_ENSG00000113569_ENST00000381843|hu_hu|motif|central (ssRNA)
RNA: GGGAGUUCUACAGUCCGACGAUCACAAAUUGCAUCAUCAGUGCUAUAUAGAAGUGGGCAGAUAUCCUGUAAAUGUAAACGGAUGCCAUCAACAGCGGCAUUAUCUCUGAUGUAGCAGUUGAUAAGAGAAGCAAUUAAUGCCCCCAACAGAGGAUUGAGCAUCA
B13: chr12:57037365:57037366:-_ENSG00000110955_ENST00000262030|hu_hu|FALSE|FALSE (ssRNA)
RNA: GGGAGUUCUACAGUCCGACGAUCCUUGCCAACUCCAGCACCACCAAAAAGCCCAAUUUUGCCACCCUUGGCAUAGGGAGCUAGCAGAUCGACAACCUUGAUACCAGUCACCAGAAUUUCCUGCUCAACACUCAUUUCCAUGAACAACAGAGGAUUGAGCAUCA
B14: chr8:95500983:95500984:-_ENSG00000164944_ENST00000437199|hu_hu|hu_hu_hu_mus_True|38_48 (ssRNA)
RNA: GGGAGUUCUACAGUCCGACGAUCAGAACACAUCUAUCGAGUAAAGGACCGUACAUGACGGCCUCUACCACUGCCUCCACUAACAAAACUUUCCUCUUGAGCCUCCAUGCCGCUAUUUGUACUAGCCCAGGACGGUCCCAGGCCCAACAGAGGAUUGAGCAUCA

Target: T1, UNK ZnF1-3
Experiment: nsRBNS (natural sequence RNA bind-n-seq); RBNS binding buffer (assumed for nsRBNS): 25 mM Tris pH 7.5, 150 mM KCl, 3 mM MgCl2, 0.01% Triton X-100, 500 ug/ml BSA, 20 U/ml SUPERase-In, 4 C; UNK is unkempt and MSI1 is Musashi-1; names of the RNAs are library labels; protein concentration not given here; high values mean tight binding

Binder | binding signal
B1 | 0.645 enrichment R
B2 | 1.74 enrichment R
B3 | 0.751 enrichment R
B4 | 1.06 enrichment R
B5 | 1.51 enrichment R
B6 | 0.436 enrichment R
B7 | 1.07 enrichment R
B8 | 0.599 enrichment R
B9 | 1.14 enrichment R
B10 | 1.89 enrichment R
B11 | 1.66 enrichment R
B12 | 1.65 enrichment R
B13 | 1.53 enrichment R
B14 | 1.03 enrichment R
